The other results are listed elsewhere or left out. At the low end of the ranking, values are background and their order means little.

The target in the test is SIX1 homeodomain (reference allele) (UniProt Q15475). Description: universal protein binding microarray. To be noted: Universal all-10-mer PBM (8x60K, AMADID 030236), 300 nM GST-tagged protein, Alexa Fluor 488 anti-GST; buffer, salt, pH and temperature not stated; high values mean tight binding; most listed sequences are background and not binding sites; double strand, one strand shown.
For TCGGTGCA, the binding signal is -0.0969 E-score.

ATACATAG: the binding signal was 0.177 E-score.

Consider CCATCCTA, for which the binding signal worked out at 0.0631 E-score.

Turning to CCGGAGCG, the binding signal was -0.185 E-score.

Consider GGTGTTAC, for which the binding signal was 0.269 E-score.

ACCAACTG: the binding signal amounted to 0.000585 E-score.

As for CCAATAGC, the binding signal is -0.0933 E-score.

Take GCAACGAC: the binding signal was -0.13 E-score.

ATCGCGGG: the binding signal stood at 0.291 E-score.

Turning to ACCCACGG, the binding signal was -0.0163 E-score.

Consider GTAAGTTA, for which the binding signal is -0.213 E-score.

Regarding AGTGGAGA, the binding signal is -0.0298 E-score.

CTGGCATA: the binding signal came out at 0.228 E-score.

With TATGTTCA, the binding signal came out at 0.0594 E-score.

As for AGGATGTC, the binding signal is 0.0999 E-score.

Turning to CCTTTCGA, the binding signal is -0.0682 E-score.

Regarding CGCCCTGC, the binding signal worked out at 0.0146 E-score.

For AGTAAACC, the binding signal came out at 0.0274 E-score.

Regarding AAGAGCAC, the binding signal is -0.0323 E-score.

Take ATACCCCC: the binding signal was 0.454 E-score.

GCTATCCC: the binding signal amounted to 0.281 E-score.

AAGCCCGG: the binding signal was -0.035 E-score.

Turning to CCACGGGA, the binding signal is -0.0263 E-score.

Consider GAAGCAGA, for which the binding signal is -0.158 E-score.

For TACCCGGA, the binding signal was 0.332 E-score.

In the case of GTTACCTA, the binding signal was -0.0619 E-score.

In the case of GCTGCATA, the binding signal was 0.0234 E-score.

Take AAAACAAT: the binding signal was -0.0863 E-score.

In the case of CTGCGTAA, the binding signal was -0.278 E-score.

As for TAAATCCA, the binding signal was -0.0787 E-score.

As to AGCCTGAG, the binding signal was -0.0766 E-score.

As for CTAACTAC, the binding signal stood at 0.00143 E-score.

On to ACTGGTAG, for which the binding signal came to 0.0162 E-score.

As for GTGGGTTA, the binding signal is -0.00241 E-score.

In the case of CAAGTTGG, the binding signal was -0.139 E-score.

Take GCCCGTAA: the binding signal was -0.221 E-score.

For the sequence CATCGTCG, the binding signal was -0.249 E-score.

TCTGGCCA: the binding signal was -0.0767 E-score.

ATGCTTAG: the binding signal is -0.245 E-score.

Consider AATCCAGA, for which the binding signal was found to be 0.0874 E-score.

As to AGGACGGA, the binding signal is -0.0723 E-score.

For AGCTATGC, the binding signal is -0.117 E-score.

Regarding CTTTCGCA, the binding signal is -0.279 E-score.

In the case of CAGCGTAC, the binding signal is -0.146 E-score.

As to AAGGGATA, the binding signal amounted to 0.37 E-score.

For the sequence ATAATAGA, the binding signal is -0.0292 E-score.

For the sequence ACGTGGGC, the binding signal is -0.0255 E-score.

As to ACAAACCA, the binding signal is -0.174 E-score.

Turning to CTTTGTAA, the binding signal is -0.11 E-score.

For AGCATGCG, the binding signal turned out to be 0.0616 E-score.

Consider CAACCCGA, for which the binding signal is -0.0372 E-score.

Turning to GATAATGA, the binding signal was found to be 0.174 E-score.

As to CGAATTGC, the binding signal was -0.319 E-score.

On to TACTGAAA, for which the binding signal turned out to be 0.0387 E-score.

As for AATTATCG, the binding signal is -0.0423 E-score.

Turning to CAGGGGGA, the binding signal turned out to be 0.106 E-score.

As to TAACTCAA, the binding signal was -0.238 E-score.

For the sequence CGCTCCAC, the binding signal is -0.247 E-score.

As for CACACTGC, the binding signal was -0.173 E-score.

Turning to GTGATAAC, the binding signal was determined as 0.116 E-score.

AGGTTTTG: the binding signal was -0.206 E-score.

As to ACTTGATC, the binding signal came out at 0.269 E-score.

As for CGGGATCC, the binding signal came to 0.393 E-score.

Consider ATTTCAAC, for which the binding signal is -0.11 E-score.

With CTGAGTAC, the binding signal was -0.0488 E-score.

AATCTATG: the binding signal came to 0.0729 E-score.

In the case of ACATGACC, the binding signal is -0.144 E-score.

Turning to GAAGCAGC, the binding signal is -0.228 E-score.

Consider GTTTTGAA, for which the binding signal was -0.196 E-score.

Regarding ACAGAAAT, the binding signal is -0.0575 E-score.

In the case of AAACAATG, the binding signal was -0.35 E-score.

Regarding CCTAATAA, the binding signal was -0.0836 E-score.

With GAGTCCAA, the binding signal was -0.197 E-score.

For the sequence AATATAGA, the binding signal stood at 0.227 E-score.

Regarding AGTTGTCA, the binding signal was -0.0631 E-score.

Regarding GATCATCA, the binding signal worked out at 0.34 E-score.

On to GCCGGCAA, for which the binding signal is -0.292 E-score.

With ACGGCATG, the binding signal is -0.0243 E-score.

With ACGTCGAC, the binding signal is -0.226 E-score.

Regarding CCCGGGGC, the binding signal was 0.0596 E-score.

Consider CCAACTGA, for which the binding signal amounted to 0.0817 E-score.

CAGTACCA: the binding signal is -0.0671 E-score.

For the sequence ACGCGAAT, the binding signal amounted to 0.0356 E-score.

Consider CATAAGAA, for which the binding signal was determined as 0.178 E-score.

CCTATAGA: the binding signal amounted to 0.157 E-score.

Turning to ATATATGG, the binding signal worked out at 0.334 E-score.

Take ATAGTGCC: the binding signal worked out at 0.0903 E-score.

AGATAGTA: the binding signal turned out to be 0.24 E-score.

For GAGCTATA, the binding signal stood at 0.0653 E-score.

On to CCCCCTCA, for which the binding signal is -0.0728 E-score.

On to GCACGGCC, for which the binding signal is -0.154 E-score.

For GTAGGCTA, the binding signal turned out to be 0.0848 E-score.

Turning to AGAAACTC, the binding signal is -0.242 E-score.

In the case of GAGGAGGA, the binding signal was 0.0908 E-score.

As to CGCACAGA, the binding signal is -0.063 E-score.

As for ATTTTAAA, the binding signal is -0.0377 E-score.

In the case of CCTATTCA, the binding signal is -0.0425 E-score.

With TCCCCAAA, the binding signal was 0.00539 E-score.

AATGTTAG: the binding signal is -0.283 E-score.

In the case of AAATAAGA, the binding signal was -0.00547 E-score.

With AAGGGACG, the binding signal was -0.16 E-score.

Turning to AGCGGTTG, the binding signal was -0.0108 E-score.

With AAGCTTAC, the binding signal was -0.286 E-score.

As to AGGCAGAT, the binding signal worked out at 0.258 E-score.

Take CACAGCCC: the binding signal was -0.295 E-score.

For the sequence GTATCACA, the binding signal came out at 0.476 E-score.

For the sequence AAATAGGC, the binding signal is -0.164 E-score.

With TACGTCCA, the binding signal was -0.195 E-score.

Turning to TGTCCGAA, the binding signal is -0.129 E-score.

Regarding CAATTAAA, the binding signal is -0.091 E-score.

Regarding ATCACTTA, the binding signal was found to be 0.273 E-score.

As for AACACGAT, the binding signal is 0.176 E-score.

For the sequence CAGTATAC, the binding signal amounted to 0.295 E-score.

Consider CGACTGAA, for which the binding signal was -0.156 E-score.

CCGCCAGC: the binding signal is -0.105 E-score.

With CCGCATGA, the binding signal was -0.0385 E-score.

In the case of CTTTAGTA, the binding signal was -0.048 E-score.

As for AATGTTCG, the binding signal was -0.175 E-score.

As for ACTCCTAA, the binding signal is -0.00136 E-score.

As to CCATCCGG, the binding signal came out at 0.235 E-score.

Regarding CGGAGTAA, the binding signal turned out to be 0.0438 E-score.

On to CAGAGCGA, for which the binding signal was -0.0744 E-score.

As for CTTTACAC, the binding signal turned out to be 0.0513 E-score.

With ACGAGCGC, the binding signal was -0.215 E-score.

Regarding GCACTATA, the binding signal came out at 0.17 E-score.

In the case of GCACAAGA, the binding signal was -0.137 E-score.

Take GCGCCCCA: the binding signal was -0.156 E-score.

Regarding CATGCAGA, the binding signal was -0.0909 E-score.

Take GAACCGGA: the binding signal was 0.0927 E-score.

ATTGCCTC: the binding signal was determined as 0.118 E-score.

For AGCCGGCA, the binding signal was -0.261 E-score.

As to ATCCTGGA, the binding signal is 0.284 E-score.

Turning to CGACTAGA, the binding signal was -0.0874 E-score.

As to TACGACAA, the binding signal was 0.107 E-score.

For the sequence CATAATGA, the binding signal was 0.0842 E-score.

For CCGTCAGG, the binding signal is -0.159 E-score.

On to ACCGAGAT, for which the binding signal was found to be 0.265 E-score.

ATAGACTC: the binding signal was 0.0181 E-score.

On to ACGTGCGA, for which the binding signal is -0.0617 E-score.

As to GTAAACAA, the binding signal was 0.0393 E-score.

GATCGACA: the binding signal was 0.115 E-score.

On to AAGGCCCC, for which the binding signal was -0.166 E-score.

On to ACGAGGTC, for which the binding signal is -0.108 E-score.

Turning to ACGCACTC, the binding signal was -0.203 E-score.

On to CCGCACAA, for which the binding signal is 0.0576 E-score.

As for CCATTTGA, the binding signal is -0.0936 E-score.

In the case of CACAAAAG, the binding signal was 0.0396 E-score.

Turning to CCGTTCTC, the binding signal is -0.0683 E-score.

Regarding GGCCATTA, the binding signal is -0.118 E-score.

In the case of GCGGGCAC, the binding signal was -0.01 E-score.

Regarding CCATGCCC, the binding signal is -0.0766 E-score.

Turning to ACCACCCG, the binding signal turned out to be 0.0243 E-score.

In the case of CAATATCG, the binding signal worked out at 0.296 E-score.

With ACAAGTAT, the binding signal came to 0.247 E-score.

Take AGGACTAG: the binding signal was -0.0994 E-score.

With CGATGGGA, the binding signal is -0.0469 E-score.

Regarding CCCTGGCA, the binding signal was found to be 0.0089 E-score.

Turning to CAGTGAGG, the binding signal is -0.0897 E-score.

Regarding AAAATTAA, the binding signal is -0.162 E-score.

Take ACACTTGA: the binding signal is -0.0787 E-score.

For the sequence AGGCCACC, the binding signal was -0.182 E-score.

For AAACTGAT, the binding signal stood at 0.149 E-score.

Consider CGAGAGAA, for which the binding signal was -0.117 E-score.

Regarding CCAAAAGA, the binding signal is 0.0162 E-score.

Turning to AGAGTCCG, the binding signal is -0.188 E-score.

Take GATTAGTA: the binding signal came out at 0.149 E-score.

With CGATAAGA, the binding signal was found to be 0.124 E-score.

Turning to GGGGGCAA, the binding signal is -0.285 E-score.

Consider CGTTTTTA, for which the binding signal was -0.118 E-score.

Turning to AGCTTAGG, the binding signal was -0.115 E-score.

On to AAGATACC, for which the binding signal amounted to 0.426 E-score.

Take AACCGATA: the binding signal amounted to 0.41 E-score.
